# Experimental data taken from PMC9911399, “Two distinct binding modes provide the RNA-binding protein RbFox with extraordinary sequence specificity”.
# Changes are numbered by the printed parent chain; changes in the protein carry UniProt numbers. This is one part of the list.
# T1: RBFOX1 RRM RbFoxmut (Fox-RRM*) (Homo sapiens, UniProt Q9NWB1 109-208, R118D;E147R;N151S;E152T)
# T1 sequence: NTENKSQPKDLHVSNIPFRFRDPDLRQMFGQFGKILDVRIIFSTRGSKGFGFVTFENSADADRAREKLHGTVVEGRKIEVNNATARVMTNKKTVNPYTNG
# B1: AUUUCCG (DNA:RNA)
# RNA: GGGAGACCGGAAUUCAGAUUGUCCAUUUCCGUUAAAUCCCGUCGUAGCCACCA
# DNA 1: CAATCTGAATTCCGGTCTCCC
# DNA 2: TGGTGGCTACGACGGGATT
# B2: GCACGAA (DNA:RNA)
# RNA: GGGAGACCGGAAUUCAGAUUGUCCGCACGAAUUAAAUCCCGUCGUAGCCACCA
# DNA 1: CAATCTGAATTCCGGTCTCCC
# DNA 2: TGGTGGCTACGACGGGATT
# B3: GUCCAUC (DNA:RNA)
# RNA: B2 RNA with C26U, A27C, G29A, A30U, A31C
# DNA 1: CAATCTGAATTCCGGTCTCCC
# DNA 2: TGGTGGCTACGACGGGATT
# B4: UUCCACA (DNA:RNA)
# RNA: B1 RNA with A25U, U27C, U28C, C29A, G31A
# DNA 1: CAATCTGAATTCCGGTCTCCC
# DNA 2: TGGTGGCTACGACGGGATT
# B5: UCUAUUA (DNA:RNA)
# RNA: B2 RNA with G25U, A27U, C28A, G29U, A30U
# DNA 1: CAATCTGAATTCCGGTCTCCC
# DNA 2: TGGTGGCTACGACGGGATT
# B6: AGGACAA (DNA:RNA)
# RNA: B1 RNA with U26G, U27G, U28A, C30A, G31A
# DNA 1: CAATCTGAATTCCGGTCTCCC
# DNA 2: TGGTGGCTACGACGGGATT
# B7: CCCGGAA (DNA:RNA)
# RNA: B2 RNA with G25C, A27C, C28G
# DNA 1: CAATCTGAATTCCGGTCTCCC
# DNA 2: TGGTGGCTACGACGGGATT
# B8: ACCAGUA (DNA:RNA)
# RNA: B2 RNA with G25A, A27C, C28A, A30U
# DNA 1: CAATCTGAATTCCGGTCTCCC
# DNA 2: TGGTGGCTACGACGGGATT
# B9: UGCCCCU (DNA:RNA)
# RNA: B1 RNA with A25U, U26G, U27C, U28C, G31U
# DNA 1: CAATCTGAATTCCGGTCTCCC
# DNA 2: TGGTGGCTACGACGGGATT
# B10: GAUGUUC (DNA:RNA)
# RNA: B1 RNA with A25G, U26A, U28G, C29U, C30U, G31C
# DNA 1: CAATCTGAATTCCGGTCTCCC
# DNA 2: TGGTGGCTACGACGGGATT
# B11: AAUAACA (DNA:RNA)
# RNA: B1 RNA with U26A, U28A, C29A, G31A
# DNA 1: CAATCTGAATTCCGGTCTCCC
# DNA 2: TGGTGGCTACGACGGGATT
# B12: UCGAGUA (DNA:RNA)
# RNA: B2 RNA with G25U, A27G, C28A, A30U
# DNA 1: CAATCTGAATTCCGGTCTCCC
# DNA 2: TGGTGGCTACGACGGGATT
# B13: AAAACCC (DNA:RNA)
# RNA: B1 RNA with U26A, U27A, U28A, G31C
# DNA 1: CAATCTGAATTCCGGTCTCCC
# DNA 2: TGGTGGCTACGACGGGATT
# B14: CGCGCGA (DNA:RNA)
# RNA: B1 RNA with A25C, U26G, U27C, U28G, C30G, G31A
# DNA 1: CAATCTGAATTCCGGTCTCCC
# DNA 2: TGGTGGCTACGACGGGATT
# B15: GGCGGCC (DNA:RNA)
# RNA: B2 RNA with C26G, A27C, C28G, A30C, A31C
# DNA 1: CAATCTGAATTCCGGTCTCCC
# DNA 2: TGGTGGCTACGACGGGATT
# B16: UCUACUU (DNA:RNA)
# RNA: B1 RNA with A25U, U26C, U28A, C30U, G31U
# DNA 1: CAATCTGAATTCCGGTCTCCC
# DNA 2: TGGTGGCTACGACGGGATT
# B17: UUGCAUU (DNA:RNA)
# RNA: B1 RNA with A25U, U27G, U28C, C29A, C30U, G31U
# DNA 1: CAATCTGAATTCCGGTCTCCC
# DNA 2: TGGTGGCTACGACGGGATT
# B18: AGUCCCG (DNA:RNA)
# RNA: B1 RNA with U26G, U28C
# DNA 1: CAATCTGAATTCCGGTCTCCC
# DNA 2: TGGTGGCTACGACGGGATT
# B19: UCCUGCC (DNA:RNA)
# RNA: B1 RNA with A25U, U26C, U27C, C29G, G31C
# DNA 1: CAATCTGAATTCCGGTCTCCC
# DNA 2: TGGTGGCTACGACGGGATT
# B20: UGACACU (DNA:RNA)
# RNA: B2 RNA with G25U, C26G, G29A, A30C, A31U
# DNA 1: CAATCTGAATTCCGGTCTCCC
# DNA 2: TGGTGGCTACGACGGGATT
# B21: CCAACGC (DNA:RNA)
# RNA: B2 RNA with G25C, C28A, G29C, A30G, A31C
# DNA 1: CAATCTGAATTCCGGTCTCCC
# DNA 2: TGGTGGCTACGACGGGATT
# B22: CAUAGUA (DNA:RNA)
# RNA: B2 RNA with G25C, C26A, A27U, C28A, A30U
# DNA 1: CAATCTGAATTCCGGTCTCCC
# DNA 2: TGGTGGCTACGACGGGATT
# B23: GCAACAU (DNA:RNA)
# RNA: B2 RNA with C28A, G29C, A31U
# DNA 1: CAATCTGAATTCCGGTCTCCC
# DNA 2: TGGTGGCTACGACGGGATT
# B24: UGCUUUA (DNA:RNA)
# RNA: B1 RNA with A25U, U26G, U27C, C29U, C30U, G31A
# DNA 1: CAATCTGAATTCCGGTCTCCC
# DNA 2: TGGTGGCTACGACGGGATT
# B25: GUUGGUA (DNA:RNA)
# RNA: B2 RNA with C26U, A27U, C28G, A30U
# DNA 1: CAATCTGAATTCCGGTCTCCC
# DNA 2: TGGTGGCTACGACGGGATT
# B26: GUAUACA (DNA:RNA)
# RNA: B1 RNA with A25G, U27A, C29A, G31A
# DNA 1: CAATCTGAATTCCGGTCTCCC
# DNA 2: TGGTGGCTACGACGGGATT
# B27: AAUCGUA (DNA:RNA)
# RNA: B2 RNA with G25A, C26A, A27U, A30U
# DNA 1: CAATCTGAATTCCGGTCTCCC
# DNA 2: TGGTGGCTACGACGGGATT
# B28: GACGAGG (DNA:RNA)
# RNA: B1 RNA with A25G, U26A, U27C, U28G, C29A, C30G
# DNA 1: CAATCTGAATTCCGGTCTCCC
# DNA 2: TGGTGGCTACGACGGGATT
# B29: AUUGGUG (DNA:RNA)
# RNA: B1 RNA with U28G, C29G, C30U
# DNA 1: CAATCTGAATTCCGGTCTCCC
# DNA 2: TGGTGGCTACGACGGGATT
# B30: CUAACAA (DNA:RNA)
# RNA: B2 RNA with G25C, C26U, C28A, G29C
# DNA 1: CAATCTGAATTCCGGTCTCCC
# DNA 2: TGGTGGCTACGACGGGATT
# B31: CCAAAAU (DNA:RNA)
# RNA: B2 RNA with G25C, C28A, G29A, A31U
# DNA 1: CAATCTGAATTCCGGTCTCCC
# DNA 2: TGGTGGCTACGACGGGATT
# Target: T1, RBFOX1 RRM RbFoxmut (Fox-RRM*)
# Assay: EMSA; HiTS-Eq, 1 nM pool, 10 min; buffer printed only for the single-RNA assays: 10 mM Tris pH 7.5, 150 mM NaCl, 3.4 mM EDTA, 0.001% NP-40, 30 C
# Details: tags: His6 N-terminal (pET28a); label: 5' 32P
# Method in brief: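 Relative association constants, normalised to the cognate motif, were derived by comparing read counts of each RNA species with those of the control reaction. The RNA sequenced was the free fraction, separated by 8% native PAGE after a 10 min equilibration in 50 µL of 1 nM 5′-radiolabelled RNA (7 randomized nucleotides) with increasing concentrations of purified wild-type or mutant RbFox RRM.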
row,Binder,binding signal
1,B1,0.0706 KA relative to UGCAUGU
2,B2,0.256 KA relative to UGCAUGU
3,B3,0.0764 KA relative to UGCAUGU
4,B4,0.0981 KA relative to UGCAUGU
5,B5,0.118 KA relative to UGCAUGU
6,B6,0.0419 KA relative to UGCAUGU
7,B7,0.0792 KA relative to UGCAUGU
8,B8,0.118 KA relative to UGCAUGU
9,B9,0.0785 KA relative to UGCAUGU
10,B10,0.0893 KA relative to UGCAUGU
11,B11,0.072 KA relative to UGCAUGU
12,B12,0.16 KA relative to UGCAUGU
13,B13,0.0666 KA relative to UGCAUGU
14,B14,0.0872 KA relative to UGCAUGU
15,B15,0.16 KA relative to UGCAUGU
16,B16,0.0863 KA relative to UGCAUGU

row,Binder,binding signal
1,B17,0.131 KA relative to UGCAUGU
2,B18,0.0796 KA relative to UGCAUGU
3,B19,0.29 KA relative to UGCAUGU
4,B20,0.0662 KA relative to UGCAUGU
5,B21,0.104 KA relative to UGCAUGU
6,B22,0.173 KA relative to UGCAUGU
7,B23,0.0911 KA relative to UGCAUGU
8,B24,0.144 KA relative to UGCAUGU
9,B25,0.21 KA relative to UGCAUGU
10,B26,0.146 KA relative to UGCAUGU
11,B27,0.0875 KA relative to UGCAUGU
12,B28,0.0892 KA relative to UGCAUGU
13,B29,0.144 KA relative to UGCAUGU
14,B30,0.0569 KA relative to UGCAUGU
15,B31,0.0948 KA relative to UGCAUGU
